No constants are given. Whether binding was seen depends on the method and setting. For part of these data: Binding seen in cells or lysates may run through a third protein. Some binding calls cover weakened binding; strength is not graded here. For part of these data: Tags and fused reporters may be left off the sequences shown.

Chains of the proteins cited; added tags and fusions are not shown.
UniProt P16972: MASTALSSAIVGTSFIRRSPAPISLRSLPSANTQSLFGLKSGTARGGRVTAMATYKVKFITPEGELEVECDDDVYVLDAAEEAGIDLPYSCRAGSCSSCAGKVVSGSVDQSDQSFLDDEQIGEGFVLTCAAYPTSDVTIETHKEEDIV
UniProt O04090: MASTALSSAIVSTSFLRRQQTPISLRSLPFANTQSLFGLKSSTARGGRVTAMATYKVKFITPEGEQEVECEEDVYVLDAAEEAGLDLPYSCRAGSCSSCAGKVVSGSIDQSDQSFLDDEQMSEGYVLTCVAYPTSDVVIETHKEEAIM

The target of experiment [1] is T1, FdC1, full-length coding sequence in pSPYCE-35S (BiFC bait) (Arabidopsis thaliana) (UniProt O23344).
T1 sequence: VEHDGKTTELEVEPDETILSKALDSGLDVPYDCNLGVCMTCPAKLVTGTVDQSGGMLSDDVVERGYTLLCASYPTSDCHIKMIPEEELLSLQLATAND
Briefly: split reporter; BiFC in epidermal cells of tobacco leaves after Agrobacterium co-infiltration; FdC1 in pSPYCE-35S (bait), partners in pSPYNE-35S (prey); 48 h darkness; confocal microscopy.

Experiment [2] concerns the target AtFd2 (leaf-type ferredoxin 2), yeast two-hybrid bait fused with the binding domain (Arabidopsis thaliana) (UniProt P16972). Description: two-hybrid; Clontech Matchmaker GAL4 system, gold yeast strain; Fds, FdC1 and FdC1NC fused with the binding domain (BD, bait), candidate proteins fused with the active-domain (AD, prey); growth on DDO, TDO and QDO dropout media, 28°C.

The target in experiment [3] is T2, AtFdC1 (ferredoxin C 1), yeast two-hybrid bait fused with the binding domain (Arabidopsis thaliana) (UniProt O23344).
T2 sequence: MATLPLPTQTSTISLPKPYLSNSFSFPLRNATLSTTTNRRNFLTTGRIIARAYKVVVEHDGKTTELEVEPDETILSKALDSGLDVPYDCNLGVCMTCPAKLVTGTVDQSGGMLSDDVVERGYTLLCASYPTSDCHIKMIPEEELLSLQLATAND
The experiment is described as above.

For experiment [4], the target named is AtFd1 (leaf-type ferredoxin 1), yeast two-hybrid bait fused with the binding domain (Arabidopsis thaliana) (UniProt O04090). The experiment is described as above.
The target in experiment [5] is T3, FdC1NC, FdC1 with truncated C-terminus (1-145a.a.), yeast two-hybrid bait (Arabidopsis thaliana) (UniProt O23344).
T3 sequence: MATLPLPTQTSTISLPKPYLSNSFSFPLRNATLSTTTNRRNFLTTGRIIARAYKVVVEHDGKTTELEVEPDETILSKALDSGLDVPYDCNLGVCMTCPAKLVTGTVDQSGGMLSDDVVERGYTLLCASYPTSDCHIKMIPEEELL
Described as above.

B1: LeafFNR1, full-length coding sequence in pSPYNE-35S (BiFC prey) (enzyme, UniProt Q9FKW6 50-360)
chain: VTTDTTEAPPVKVVKESKKQEEGIVVNKFKPKNPYTGRCLLNTKITGDDAPGETWHIVFTTEGEVPYREGQSIGVIPEGIDKNGKPHKLRLYSIASSAIGDFGDSKTVSLCVKRLVYTNDGGEIVKGVCSNFLCDLKPGDEAKITGPVGKEMLMPKDPNATIIMLGTGTGIAPFRSFLWKMFFEEHEDYKFNGLAWLFLGVPTSSSLLYKEEFEKMKEKNPDNFRLDFAVSREQTNEKGEKMYIQTRMAEYAEELWELLKKDNTFVYMCGLKGMEKGIDDIMVSLAAKDGIDWLEYKKQLKRSEQWNVEVY
In the case of B1, the binding entry in experiment [1] is listed as “no binding”.

B2: PsaD2 (subunit D2 of photosystem I), yeast two-hybrid prey fused with the active-domain (protein, UniProt Q9SA56 1-204)
chain: MATQAAGIFSPAITTTTSAVKKLHLFSSSHRPKSLSFTKTAIRAEKTESSSAAPAVKEAPVGFTPPQLDPNTPSPIFAGSTGGLLRKAQVEEFYVITWNSPKEQIFEMPTGGAAIMREGPNLLKLARKEQCLALGTRLRSKYKITYQFYRVFPNGEVQYLHPKDGVYPEKANPGREGVGLNMRSIGKNVSPIEVKFTGKQSYDL
Consider B2, for which the binding result in experiment [2], in experiment [3], in experiment [4] and in experiment [5] was “binds” throughout.

B3: LeafFNR2, full-length coding sequence in pSPYNE-35S (BiFC prey) (enzyme, UniProt Q8W493 58-369)
chain: ITTETDTPTPAKKVEKVSKKNEEGVIVNRYRPKEPYTGKCLLNTKITADDAPGETWHMVFSHQGEIPYREGQSVGVIADGIDKNGKPHKVRLYSIASSALGDLGNSETVSLCVKRLVYTNDQGETVKGVCSNFLCDLAPGSDVKLTGPVGKEMLMPKDPNATVIMLATGTGIAPFRSFLWKMFFEKHDDYKFNGLAWLFLGVPTTSSLLYQEEFDKMKAKAPENFRVDYAISREQANDKGEKMYIQTRMAQYAAELWELLKKDNTFVYMCGLKGMEKGIDDIMVSLAANDGIDWFDYKKQLKKAEQWNVEVY
Take B3: the binding result in experiment [1] was “no binding”.

The values above are taken from article PMC5893904.
